Laboratory results reported in US8828401B2, “Cytotoxic peptides and antibody drug conjugates thereof” (Pfizer Inc., priority 2011, dated 2014).

Experiments:
[1] = system: HCC2429 lung xenografts; assay: HCC2429 lung xenografts with anti-Notch ADCs; format: in vivo, nude (Nu/Nu) female mice
Description: (§1) Humanized anti-Notch antibodies, hu28 and hu75, and rat-human chimeric anti-Notch antibodies, ch28 and ch75, were conjugated to various linker-payload combinations and tested in 37622A1 non-small cell lung cancer (NSCLC), HCC2429 lung cancer, MDA-MB-468 breast cancer and N87 gastric cancer xenograft models. For each model described below the first dose was given on Day 0. The tumors were measured at least once a week and their volume was calculated with the formula: tumor volume (mm^3)=0.5×(tumor width^2)(tumor length). The mean tumor volumes (±S.E.M.) for each treatment group were calculated having a maximum of 10 animals and a minimum of 6 animals to be included.
Similar in vivo experiments were performed with the HCC2429 lung cancer cell line as described above. […] When the tumors reached a volume of 200 to 400 mm^3, the tumors were staged to ensure uniformity of the tumor mass among various treatment groups. The HCC2429 lung model was dosed intraveneously Q4dx4 with PBS vehicle, humanized anti-Notch ADCs and control huNeg-8.8 ADCs at the doses provided in Tables 12 and 13.

[2] = system: OVCAR3 (ovarian cancer); assay: In vitro cytotoxicity assay with anti-Notch ADCs (MTS); format: cell-based
Description: (§2) The effects of anti-Notch ADCs were assessed on 1) cell lines endogenously expressing Notch protein: HCC2429 (lung cancer), OVCAR3 (ovarian cancer) and MDA-MB-468 (breast cancer), 2) cell lines engineered to over-express Notch protein: MDA-MB-468/hNotch and U2OS/hNotch, and 3) a negative control cell line (SW900) using an MTS cellular viability indicator (Promega, Madison, Wis.). These cell lines were cultured with increasing concentrations of anti-Notch ADCs comprising humanized anti-Notch antibodies, hu28 and hu75, and rat-human chimeric anti-Notch antibodies, ch28 and ch75, conjugated to various linker-payload combinations of the present invention. As a specificity control for the anti-Notch-ADCs, non-targeted control-ADCs (huNeg8.8-ADCs or ch2H6-ADCs) were also tested on the same cell lines. After four days, viability of each culture was assessed. IC50 values were calculated by logistic non-linear regression and presented as ng Ab/mL. The drug antibody ratio (DAR) is also provided.

[3] = system: HCC2429 (lung cancer); assay: as above; format: cell-based
Description: as §2

[4] = system: MDA-MB-468/hNotch; assay: as above; format: cell-based
Description: as §2

[5] = system: MDA-MB-468 breast xenografts; assay: MDA-MB-468 breast xenografts with anti-Notch ADCs; format: in vivo, female SCID Hairless Outbred (SHO) mice; conditions: for tumor volume (mm^3 ± SEM): vc6780 study, Dose 1 mg/kg Q4dx4 iv
Description: as §1
Similar in vivo experiments were performed with the MDA-MB-468 breast cancer cell line as described above. […] To generate xenografts, female SCID Hairless Outbred (SHO) mice were orthotopically implanted with 10×10^6 MDA-MB-468 cells containing 50% Matrigel (BD Biosciences) in the mammary fat pad. When the tumors reached a volume of 250 to 450 mm^3, the tumors were staged to ensure uniformity of the tumor mass among various treatment groups. The MDA-MB-468 breast model was dosed intraveneously Q4dx4 with PBS vehicle, humanized anti-Notch ADCs and control huNeg-8.8 ADCs at the doses provided in Tables 14 and 15.

[6] = first of two individual repeats
[7] = second of two individual repeats

B1: hu28-vc6780 (conjugate)
heavy: EVQLVESGGGLVQPGGSLRLSCAASGFTFRDYGMTWVRQAPGKGLEWVAYISSGSNYIYYAEAVKGRFTISRDNAKNSLYLQMNSLRAEDTAVYYCARRGPFVLDAWGQGTLVTVSS[human IgG1 constant region left out]
light: DIQMTQSPSSLSASVGDRVTITCKASQSINRYLHWYQQKPGKAPKLLIYNANGLQTGVPSRFSGSGSGTDFTLTISSLQPEDFATYYCLQHNTWPDTFGGGTKVEIKRTVAAPSVFIFPPSDEQLKSGTASVVCLLNNFYPREAKVQWKVDNALQSGNSQESVTEQDSKDSTYSLSSTLTLSKADYEKHKVYACEVTHQGLSSPVTKSFNRGEC
tumor volume (mm^3 ± SEM) ([1]; 10 mg/kg Q4dx4, DAY 1): 369 ± 31 mm^3 | tumor volume (mm^3 ± SEM) ([1]; 10 mg/kg Q4dx4, DAY 3): 318 ± 31 mm^3 | tumor volume (mm^3 ± SEM) ([1]; 10 mg/kg Q4dx4, DAY 5): 228 ± 28 mm^3 | tumor volume (mm^3 ± SEM) ([1]; 10 mg/kg Q4dx4, DAY 7): 172 ± 22 mm^3 | tumor volume (mm^3 ± SEM) ([1]; 10 mg/kg Q4dx4, DAY 10): 143 ± 22 mm^3 | tumor volume (mm^3 ± SEM) ([1]; 10 mg/kg Q4dx4, DAY 12): 134 ± 20 mm^3 | tumor volume (mm^3 ± SEM) ([1]; 10 mg/kg Q4dx4, DAY 14): 115 ± 16 mm^3 | tumor volume (mm^3 ± SEM) ([1]; 10 mg/kg Q4dx4, DAY 17): 127 ± 18 mm^3 | tumor volume (mm^3 ± SEM) ([1]; 10 mg/kg Q4dx4, DAY 20): 149 ± 27 mm^3 | tumor volume (mm^3 ± SEM) ([1]; 10 mg/kg Q4dx4, DAY 24): 206 ± 60 mm^3 | tumor volume (mm^3 ± SEM) ([1]; 10 mg/kg Q4dx4, DAY 27): 290 ± 100 mm^3 | tumor volume (mm^3 ± SEM) ([1]; 10 mg/kg Q4dx4, DAY 31): 378 ± 150 mm^3 | tumor volume (mm^3 ± SEM) ([1]; 10 mg/kg Q4dx4, DAY 34): 551 ± 244 mm^3 | tumor volume (mm^3 ± SEM) ([1]; 10 mg/kg Q4dx4, DAY 38): 718 ± 332 mm^3 | tumor volume (mm^3 ± SEM) ([1]; 10 mg/kg Q4dx4, DAY 42): 1011 ± 504 mm^3 | tumor volume (mm^3 ± SEM) ([1]; 10 mg/kg Q4dx4, DAY −1): 244 ± 22 mm^3 | effect on growth of HCC2429 lung xenografts (in words) ([1]; humanized ADCs, Q4dx4, doses of Tables 12 and 13): inhibited growth of HCC2429 lung xenografts in a dose-dependent manner | tumor volume (mm^3 ± SEM) ([1]; vc6780 study, 1 mg/kg Q4dx4, DAY 1): 400 ± 66 mm^3 | tumor volume (mm^3 ± SEM) ([1]; vc6780 study, 1 mg/kg Q4dx4, DAY 3): 579 ± 113 mm^3 | tumor volume (mm^3 ± SEM) ([1]; vc6780 study, 1 mg/kg Q4dx4, DAY 5): 826 ± 191 mm^3 | tumor volume (mm^3 ± SEM) ([1]; vc6780 study, 1 mg/kg Q4dx4, DAY 7): 1023 ± 259 mm^3 | tumor volume (mm^3 ± SEM) ([1]; vc6780 study, 1 mg/kg Q4dx4, DAY 10): 1439 ± 398 mm^3 | tumor volume (mm^3 ± SEM) ([1]; vc6780 study, 1 mg/kg Q4dx4, DAY 12): 1442 ± 487 mm^3 | tumor volume (mm^3 ± SEM) ([1]; vc6780 study, 1 mg/kg Q4dx4, DAY −1): 245 ± 27 mm^3 | tumor volume (mm^3 ± SEM) ([1]; vc6780 study, 3 mg/kg Q4dx4, DAY 1): 379 ± 45 mm^3 | tumor volume (mm^3 ± SEM) ([1]; vc6780 study, 3 mg/kg Q4dx4, DAY 3): 493 ± 65 mm^3 | tumor volume (mm^3 ± SEM) ([1]; vc6780 study, 3 mg/kg Q4dx4, DAY 5): 609 ± 82 mm^3 | tumor volume (mm^3 ± SEM) ([1]; vc6780 study, 3 mg/kg Q4dx4, DAY 7): 638 ± 86 mm^3 | tumor volume (mm^3 ± SEM) ([1]; vc6780 study, 3 mg/kg Q4dx4, DAY 10): 784 ± 115 mm^3 | tumor volume (mm^3 ± SEM) ([1]; vc6780 study, 3 mg/kg Q4dx4, DAY 12): 883 ± 132 mm^3 | tumor volume (mm^3 ± SEM) ([1]; vc6780 study, 3 mg/kg Q4dx4, DAY 14): 895 ± 175 mm^3 | tumor volume (mm^3 ± SEM) ([1]; vc6780 study, 3 mg/kg Q4dx4, DAY 17): 1105 ± 253 mm^3 | tumor volume (mm^3 ± SEM) ([1]; vc6780 study, 3 mg/kg Q4dx4, DAY 20): 1219 ± 311 mm^3 | tumor volume (mm^3 ± SEM) ([1]; vc6780 study, 3 mg/kg Q4dx4, DAY 24): 1618 ± 468 mm^3 | tumor volume (mm^3 ± SEM) ([1]; vc6780 study, 3 mg/kg Q4dx4, DAY −1): 245 ± 24 mm^3 | IC50 (ng Ab/mL) [2]: 17 ng Ab/mL | IC50 (ng Ab/mL) [3, 6]: 148 ng Ab/mL | IC50 (ng Ab/mL) [3, 7]: 2050 ng Ab/mL | IC50 (ng Ab/mL) [4, 6]: 1.3 ng Ab/mL | IC50 (ng Ab/mL) [4, 7]: 3 ng Ab/mL | effect on growth of MDA-MB-468 breast xenografts (in words) ([5]; humanized ADCs, Q4dx4, doses of Tables 14 and 15): inhibited growth of MDA-MB-468 breast xenografts in a dose-dependent manner | tumor volume (mm^3 ± SEM) ([5]; DAY 0): 342 ± 16 mm^3 | tumor volume (mm^3 ± SEM) ([5]; DAY 4): 462 ± 22 mm^3
